Consider six molecules from the antibiotic and cytotoxicity screens of Wong et al. (2023).

Test [1] concerns HSkMC (human skeletal muscle cells). Briefly: cytotoxicity call (relative viability < 0.9). Conditions: 10 µM.
For test [2], the system named is HepG2. Briefly: cytotoxicity call (relative viability < 0.9). Conditions: 10 µM.
Test [3] has as its system S. aureus RN4220. The experiment in a line: growth inhibition call (relative growth <= 0.2). The note with it: 50 µM.

This is one part of the list.

With `O.O=P1(N(CCCl)CCCl)NCCCO1` (stereo not given), the cytotoxicity call in test [1] and in test [2] was “inactive” in each case. In addition, in test [3], the growth inhibition call was “inactive”.
In the case of `C[C@]12CCC(=O)C[C@@H]1CC[C@@H]1[C@@H]2CC[C@]2(C)C(=O)CC[C@@H]12` [5alpha-ANDROSTAN-3,17-DIONE ], the cytotoxicity call in test [1] and in test [2] was “inactive” in each case.
Regarding `CCCCCC1C(=O)OC(C)C(NC(=O)c2cccc(NC=O)c2O)C(=O)OC(C)C1OC(=O)CC(C)C` (stereo not given) [ANTIMYCIN A (A1 shown)], in test [3], the growth inhibition call is “inactive”.
Regarding `CCOP(=S)(OCC)SCSP(=S)(OCC)OCC`, the cytotoxicity call in test [1] and in test [2] was “inactive” throughout. Also, in test [3], the growth inhibition call is “inactive”.
On to `CC(=O)Nc1cc([As](=O)(O)O)ccc1O`, for which the cytotoxicity call in test [1] and in test [2] was “inactive” in each case. For the same molecule, in test [3], the growth inhibition call is “inactive”.
With `CN1[C@@H]2C[C@@H](O)C[C@H]1[C@@H]1O[C@@H]12`, the cytotoxicity call in test [1] and in test [2] was “inactive” in each case. The growth inhibition call in test [3] was “inactive”.
